The text below walks through data of the supplement of paper PMC9542798.

Holding throughout (assay): minimum inhibitory concentration
Compound in one experiment: CC1(C)S[C@@H]2[C@H](NC(=O)[C@H](N)c3ccccc3)C(=O)N2[C@H]1C(=O)O [Ampicillin]
The protocol: (§1)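 Broth microdilution MIC per ISO 10932 on precoated VetMIC Lact-1 plates (tylosin, vancomycin and ampicillin plates prepared manually) against lactic acid bacteria and bifidobacteria isolates. Plates were read visually after 48 h anaerobic incubation (bifidobacteria 72 h; enterococci and staphylococci 24 h aerobic) at species-specific temperatures of 30 or 37 °C. Values prefixed with < or > are outside the tested dilution range.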

Compound in the next experiment: CCC[C@@H]1C[C@@H](C(=O)N[C@@H]([C@H]2O[C@H](SC)[C@H](O)[C@@H](O)[C@H]2O)[C@H](C)Cl)N(C)C1 [Clindamycin]
The method, then:
as §1

Compound in a further experiment: CC[C@H]1OC(=O)[C@H](C)[C@@H](O[C@H]2C[C@@](C)(OC)[C@@H](O)[C@H](C)O2)[C@H](C)[C@@H](O[C@@H]2O[C@H](C)C[C@H](N(C)C)[C@H]2O)[C@](C)(O)C[C@@H](C)C(=O)[C@H](C)[C@@H](O)[C@]1(C)O [Erythromycin]
The protocol: as §1

Compound in another experiment: CN(C)[C@@H]1C(O)=C(C(N)=O)C(=O)[C@@]2(O)C(O)=C3C(=O)c4c(O)cccc4[C@@](C)(O)[C@H]3C[C@@H]12 [Tetracycline]
The method, then: as §1

Compound in a further experiment: CNC(C)C1CCC(N)C(OC2C(N)CC(N)C(OC3OCC(C)(O)C(NC)C3O)C2O)O1 [Gentamicin]
The method, then:
as §1

Compound in another experiment: CN[C@@H]1[C@H](O[C@H]2[C@H](O[C@H]3[C@H](O)[C@@H](O)[C@H](N=C(N)N)[C@@H](O)[C@@H]3N=C(N)N)O[C@@H](C)[C@]2(O)C=O)O[C@@H](CO)[C@H](O)[C@H]1O [Streptomycin]
The method, then:
as §1

Compound in the next experiment: NC[C@@H]1O[C@H](O[C@H]2[C@@H](O)[C@H](O[C@@H]3[C@@H](O)[C@H](N)C[C@H](N)[C@H]3O[C@H]3O[C@H](CN)[C@@H](O)[C@H](O)[C@H]3N)O[C@@H]2CO)[C@H](N)[C@@H](O)[C@@H]1O [Neomycin]
The protocol:
as §1

Compound in the next experiment: NC[C@H]1O[C@H](O[C@H]2[C@H](O)[C@@H](O[C@H]3O[C@H](CO)[C@@H](O)[C@H](N)[C@H]3O)[C@H](N)C[C@@H]2N)[C@H](O)[C@@H](O)[C@@H]1O [Kanamycin]
The method, then: as §1

Compound in a further experiment: O=C(N[C@H](CO)[C@H](O)c1ccc([N+](=O)[O-])cc1)C(Cl)Cl [Chloramphenicol]
The protocol: as §1
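Note: isolates derived from commercial starter, protective, probiotic or feed-additive cultures, from fermented products, from human gut mucosa or feces, and from human milk or colostrum.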

As to “Lactiplantibacillus plantarum IM699 (strain group: human intestinal mucosa or faeces)”, the minimum inhibitory concentration was determined as 0.5 µg/mL in the experiment with Ampicillin; 2 µg/mL in the experiment with Clindamycin; 0.5 µg/mL with Erythromycin; 16 µg/mL with Tetracycline; 8 µg/mL in the experiment with Gentamicin; 64 µg/mL with Streptomycin. Further, the minimum inhibitory concentration in the experiment with Neomycin came out at 4 µg/mL; in the experiment with Kanamycin, 128 µg/mL; with Chloramphenicol, 8 µg/mL.
“Lactiplantibacillus plantarum IM702 (strain group: human intestinal mucosa or faeces)”: the minimum inhibitory concentration amounted to 0.25 µg/mL in the experiment with Ampicillin; 2 µg/mL in the experiment with Clindamycin; 0.5 µg/mL with Erythromycin; 16 µg/mL with Tetracycline; 8 µg/mL in the experiment with Gentamicin; 64 µg/mL with Streptomycin. For the same test system, the minimum inhibitory concentration turned out to be 8 µg/mL with Neomycin, 256 µg/mL with Kanamycin and 8 µg/mL with Chloramphenicol.
Take “Lactiplantibacillus plantarum IM870 (strain group: probiotic strains)”: the minimum inhibitory concentration with Ampicillin came out at 0.5 µg/mL; in the experiment with Clindamycin it was 4 µg/mL; with Erythromycin, 0.5 µg/mL; with Tetracycline, 16 µg/mL; in the experiment with Gentamicin, 8 µg/mL; with Streptomycin it was 64 µg/mL. Also, the minimum inhibitory concentration stood at 8 µg/mL with Neomycin, 256 µg/mL in the experiment with Kanamycin and 8 µg/mL with Chloramphenicol.
For the test system “Lactiplantibacillus plantarum IM1008 (strain group: non-starter strains)”, the minimum inhibitory concentration is 4 µg/mL with Ampicillin; 0.5 µg/mL with Clindamycin; 0.25 µg/mL in the experiment with Erythromycin; 1 µg/mL in the experiment with Tetracycline; 8 µg/mL with Gentamicin; 32 µg/mL with Streptomycin. Besides, the minimum inhibitory concentration in the experiment with Neomycin is 16 µg/mL; with Kanamycin it was 128 µg/mL; with Chloramphenicol, 4 µg/mL.
Regarding “Lactiplantibacillus plantarum IM1009 (strain group: non-starter strains)”, the minimum inhibitory concentration in the experiment with Ampicillin amounted to 1 µg/mL; with Clindamycin, 8 µg/mL; with Erythromycin, 0.5 µg/mL; with Tetracycline, 8 µg/mL; with Gentamicin, 4 µg/mL; with Streptomycin it was 32 µg/mL. For the same test system, the values for the minimum inhibitory concentration with Neomycin, with Kanamycin and with Chloramphenicol were 4 µg/mL, 64 µg/mL and 4 µg/mL, respectively.
In the case of “Lactiplantibacillus plantarum IM1019 (strain group: non-starter strains)”, the minimum inhibitory concentration with Ampicillin came to 0.5 µg/mL; with Clindamycin it was 1 µg/mL; with Erythromycin it was 0.5 µg/mL; with Tetracycline it was 8 µg/mL; with Gentamicin it was 8 µg/mL; with Streptomycin, 64 µg/mL. The minimum inhibitory concentration with Neomycin turned out to be 8 µg/mL; with Kanamycin, 128 µg/mL; with Chloramphenicol, 8 µg/mL.
Take “Lactiplantibacillus plantarum IM1021 (strain group: non-starter strains)”: the minimum inhibitory concentration came out at 1 µg/mL in the experiment with Ampicillin; 0.5 µg/mL with Clindamycin; 0.5 µg/mL with Erythromycin; 8 µg/mL with Tetracycline; 4 µg/mL with Gentamicin; 64 µg/mL with Streptomycin. Moreover, the minimum inhibitory concentration with Neomycin worked out at 4 µg/mL; with Kanamycin, 128 µg/mL; in the experiment with Chloramphenicol, 8 µg/mL.
Take “Lactiplantibacillus plantarum IM1026 (strain group: non-starter strains)”: the minimum inhibitory concentration is 1 µg/mL with Ampicillin; 2 µg/mL in the experiment with Clindamycin; 0.5 µg/mL with Erythromycin; 8 µg/mL with Tetracycline; 8 µg/mL with Gentamicin; 64 µg/mL in the experiment with Streptomycin. Moreover, the minimum inhibitory concentration with Neomycin worked out at 8 µg/mL; in the experiment with Kanamycin, 128 µg/mL; with Chloramphenicol it was 8 µg/mL.
With “Lactiplantibacillus plantarum IM1027 (strain group: non-starter strains)”, the minimum inhibitory concentration with Ampicillin worked out at 2 µg/mL; with Clindamycin it was 4 µg/mL; in the experiment with Erythromycin, 0.25 µg/mL; with Tetracycline, 8 µg/mL; with Gentamicin, 8 µg/mL; with Streptomycin it was 64 µg/mL. The minimum inhibitory concentration with Neomycin amounted to 8 µg/mL; in the experiment with Kanamycin, 128 µg/mL; with Chloramphenicol it was 4 µg/mL.
For the test system “Lactiplantibacillus plantarum IM1031 (strain group: non-starter strains)”, the minimum inhibitory concentration with Ampicillin was found to be 2 µg/mL; with Clindamycin it was 1 µg/mL; with Erythromycin it was 0.5 µg/mL; in the experiment with Tetracycline, 16 µg/mL; with Gentamicin, 8 µg/mL; with Streptomycin, 64 µg/mL. In addition, the minimum inhibitory concentration in the experiment with Neomycin was determined as 8 µg/mL; with Kanamycin, 256 µg/mL; with Chloramphenicol, 8 µg/mL.
“Lactiplantibacillus plantarum IM1032 (strain group: non-starter strains)”: the minimum inhibitory concentration with Ampicillin is 0.5 µg/mL; with Clindamycin it was 1 µg/mL; with Erythromycin, 0.5 µg/mL; with Tetracycline, 16 µg/mL; with Gentamicin it was 8 µg/mL; in the experiment with Streptomycin, 64 µg/mL. Moreover, the figures for the minimum inhibitory concentration with Neomycin, with Kanamycin and in the experiment with Chloramphenicol were 8 µg/mL, 256 µg/mL and 8 µg/mL, respectively.
As for “Lactiplantibacillus plantarum IM1040 (strain group: non-starter strains)”, the minimum inhibitory concentration in the experiment with Ampicillin was 1 µg/mL; in the experiment with Clindamycin, 0.12 µg/mL; with Erythromycin, 0.12 µg/mL; in the experiment with Tetracycline it was 0.5 µg/mL; with Gentamicin, 4 µg/mL; with Streptomycin, 32 µg/mL. Also, the minimum inhibitory concentration in the experiment with Neomycin was determined as 8 µg/mL; with Kanamycin, 64 µg/mL; with Chloramphenicol it was 4 µg/mL.
Turning to “Lactiplantibacillus plantarum IM1045 (strain group: non-starter strains)”, the minimum inhibitory concentration with Ampicillin was 0.5 µg/mL; with Clindamycin it was 1 µg/mL; in the experiment with Erythromycin, 0.5 µg/mL; with Tetracycline, 16 µg/mL; in the experiment with Gentamicin, 8 µg/mL; in the experiment with Streptomycin, 64 µg/mL. Besides, the minimum inhibitory concentration with Neomycin is 8 µg/mL; with Kanamycin, 128 µg/mL; with Chloramphenicol, 8 µg/mL.
With “Lactiplantibacillus plantarum IM1127 (strain group: non-starter strains)”, the minimum inhibitory concentration in the experiment with Ampicillin turned out to be 2 µg/mL; with Clindamycin, 0.25 µg/mL; with Erythromycin, 0.5 µg/mL; in the experiment with Tetracycline, 16 µg/mL; in the experiment with Gentamicin, 4 µg/mL; with Streptomycin, 32 µg/mL. For the same test system, the minimum inhibitory concentration with Neomycin is 4 µg/mL; with Kanamycin, 128 µg/mL; with Chloramphenicol, 8 µg/mL.
Regarding “Lactiplantibacillus plantarum IM1136 (strain group: non-starter strains)”, the minimum inhibitory concentration worked out at 2 µg/mL with Ampicillin; 0.25 µg/mL in the experiment with Clindamycin; 0.5 µg/mL with Erythromycin; 32 µg/mL in the experiment with Tetracycline; 4 µg/mL with Gentamicin; 64 µg/mL with Streptomycin. The minimum inhibitory concentration was found to be 4 µg/mL in the experiment with Neomycin, 128 µg/mL in the experiment with Kanamycin and 8 µg/mL with Chloramphenicol.
For the test system “Lactiplantibacillus plantarum IM1151 (strain group: non-starter strains)”, the minimum inhibitory concentration is 1 µg/mL with Ampicillin; under 0.03 µg/mL in the experiment with Clindamycin; 0.5 µg/mL in the experiment with Erythromycin; 16 µg/mL with Tetracycline; 2 µg/mL in the experiment with Gentamicin; 32 µg/mL in the experiment with Streptomycin. In addition, the minimum inhibitory concentration amounted to 2 µg/mL with Neomycin, 64 µg/mL with Kanamycin and 4 µg/mL with Chloramphenicol.
